Here are results for 63 sequences from the BET-seq Pho4 binding data (Le et al. 2018).

This is one part of the list. These are noisy estimates, calculated here from bound and input reads.

In this experiment the target is T1, Pho4 (S. cerevisiae) (UniProt P07270).
T1 sequence: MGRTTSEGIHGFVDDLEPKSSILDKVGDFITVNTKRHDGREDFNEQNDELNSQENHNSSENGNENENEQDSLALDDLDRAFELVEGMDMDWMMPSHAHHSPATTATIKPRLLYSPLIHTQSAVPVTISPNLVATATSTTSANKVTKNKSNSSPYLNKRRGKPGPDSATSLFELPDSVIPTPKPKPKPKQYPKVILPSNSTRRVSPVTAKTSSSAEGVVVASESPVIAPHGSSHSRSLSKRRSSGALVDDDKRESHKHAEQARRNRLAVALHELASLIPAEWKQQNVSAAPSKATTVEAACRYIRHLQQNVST
Briefly: relative binding free energy (BET-seq); higher = weaker binding. Conditions: reference: library average.
Turning to CGGCGCACGTGAGTGG, the “relative binding free energy” value turned out to be 0.02 kcal/mol.

As for CAAGACACGTGGGGTA, the “relative binding free energy” value was -0.07 kcal/mol.

As to TGTGTCACGTGGGAGG, the “relative binding free energy” value turned out to be 0.01 kcal/mol.

Turning to GTTTGCACGTGCTTCT, the “relative binding free energy” value was determined as 0.13 kcal/mol.

CTTTGCACGTGGTTGT: the “relative binding free energy” value is -0.06 kcal/mol.

Turning to CTATTCACGTGAAGTG, the “relative binding free energy” value amounted to 0.26 kcal/mol.

Consider GTTGGCACGTGTACTG, for which the “relative binding free energy” value was -0.04 kcal/mol.

Turning to GGGGTCACGTGGAGTA, the “relative binding free energy” value stood at 0.15 kcal/mol.

On to TATTTCACGTGAGATA, for which the “relative binding free energy” value worked out at 0.39 kcal/mol.

As for GGTTGCACGTGCGGTG, the “relative binding free energy” value came out at 0.08 kcal/mol.

On to TATAGCACGTGGTCAG, for which the “relative binding free energy” value was -0.17 kcal/mol.

With AGAATCACGTGGGGCG, the “relative binding free energy” value stood at 0.1 kcal/mol.

As for ACGATCACGTGTGTTT, the “relative binding free energy” value came out at 0.17 kcal/mol.

Regarding GCGTTCACGTGATAGT, the “relative binding free energy” value was 0.3 kcal/mol.

For AGTTACACGTGTGGCA, the “relative binding free energy” value is 0.11 kcal/mol.

In the case of GATTGCACGTGTACTG, the “relative binding free energy” value turned out to be 0.18 kcal/mol.

As for TTAACCACGTGTAGTG, the “relative binding free energy” value is -0.05 kcal/mol.

For GTATGCACGTGACTGG, the “relative binding free energy” value was 0.05 kcal/mol.

Take TGGTGCACGTGAGGCG: the “relative binding free energy” value was 0.27 kcal/mol.

AGGTGCACGTGAGGTA: the “relative binding free energy” value stood at 0.11 kcal/mol.

In the case of TGGTACACGTGGAGCT, the “relative binding free energy” value was found to be 0.05 kcal/mol.

In the case of TTGCACACGTGTCGTT, the “relative binding free energy” value turned out to be 0.03 kcal/mol.

With AGGGGCACGTGGATCG, the “relative binding free energy” value was -0.15 kcal/mol.

Consider GATGTCACGTGCCGGG, for which the “relative binding free energy” value amounted to 0.13 kcal/mol.

For the sequence TTTACCACGTGGTTGT, the “relative binding free energy” value was -0.09 kcal/mol.

Turning to ATATTCACGTGTGTAG, the “relative binding free energy” value was 0.08 kcal/mol.

In the case of TATTACACGTGGTCTT, the “relative binding free energy” value is -0.01 kcal/mol.

On to TGGTACACGTGCGGAG, for which the “relative binding free energy” value is -0.02 kcal/mol.

Take ACTTTCACGTGTATTG: the “relative binding free energy” value is 0.11 kcal/mol.

As for AGATTCACGTGGGTAG, the “relative binding free energy” value came to 0.05 kcal/mol.

Regarding GTGCGCACGTGAGCGT, the “relative binding free energy” value was found to be 0.03 kcal/mol.

On to GTTAGCACGTGCGTTT, for which the “relative binding free energy” value is -0.08 kcal/mol.

As to AGTTCCACGTGGGTTG, the “relative binding free energy” value worked out at 0 kcal/mol.

Take GGGTGCACGTGCATAA: the “relative binding free energy” value stood at 0.04 kcal/mol.

For the sequence GTTTTCACGTGGTCCT, the “relative binding free energy” value is 0.36 kcal/mol.

Turning to GAAGTCACGTGTTGTA, the “relative binding free energy” value was 0.25 kcal/mol.

Turning to ATACGCACGTGAGGAG, the “relative binding free energy” value stood at 0.2 kcal/mol.

As for GTGTGCACGTGTGGTC, the “relative binding free energy” value was 0.06 kcal/mol.

As for CTTGGCACGTGCATGG, the “relative binding free energy” value is -0.16 kcal/mol.

Take TTTGGCACGTGCAGGT: the “relative binding free energy” value was -0.1 kcal/mol.

Consider AGAGTCACGTGTTTTA, for which the “relative binding free energy” value was found to be 0.11 kcal/mol.

For the sequence TATAACACGTGTTATT, the “relative binding free energy” value was -0.05 kcal/mol.

On to GAGGGCACGTGGTATG, for which the “relative binding free energy” value was -0.16 kcal/mol.

Regarding CTAAGCACGTGGTGTT, the “relative binding free energy” value is -0.19 kcal/mol.

For the sequence TTAATCACGTGCGTCG, the “relative binding free energy” value is 0.18 kcal/mol.

As to TTTTACACGTGTAGTC, the “relative binding free energy” value stood at 0.05 kcal/mol.

Turning to ATTCACACGTGGGTGT, the “relative binding free energy” value was -0.09 kcal/mol.

As to GAGGGCACGTGTCTGG, the “relative binding free energy” value is -0.07 kcal/mol.

Consider ATTTGCACGTGCGGTG, for which the “relative binding free energy” value is -0.02 kcal/mol.

As for GCTTGCACGTGGTATG, the “relative binding free energy” value is -0.06 kcal/mol.

For AGTTTCACGTGAAGTA, the “relative binding free energy” value stood at 0.4 kcal/mol.

On to TTCTACACGTGTGCTG, for which the “relative binding free energy” value worked out at 0.13 kcal/mol.

For CATTGCACGTGAAGTT, the “relative binding free energy” value was found to be 0.15 kcal/mol.

On to CGGATCACGTGCGGTG, for which the “relative binding free energy” value stood at 0.16 kcal/mol.

In the case of TGGTGCACGTGCCGGT, the “relative binding free energy” value was -0.13 kcal/mol.

Turning to AGTAGCACGTGGGTTG, the “relative binding free energy” value was -0.29 kcal/mol.

ATTAGCACGTGTGTCA: the “relative binding free energy” value is -0.01 kcal/mol.

For AGGAACACGTGTGGTT, the “relative binding free energy” value worked out at 0.19 kcal/mol.

GGAGGCACGTGAAGGA: the “relative binding free energy” value amounted to 0.28 kcal/mol.

Take ATGGCCACGTGGATGT: the “relative binding free energy” value is 0.08 kcal/mol.

For the sequence CTATTCACGTGGGTTA, the “relative binding free energy” value is -0.11 kcal/mol.

Take ATTGCCACGTGTGCTT: the “relative binding free energy” value was -0.03 kcal/mol.

For the sequence TAATACACGTGAGTTG, the “relative binding free energy” value was 0.3 kcal/mol.
